Results from patent publication US20190225647A1, “ANTIGENIC PEPTIDES FOR THE DIAGNOSIS, THERAPY MONITORING AND/OR TREATMENT OF PSORIASIS VULGARIS” (Ludwig-Maximilians-Universität München, priority 2015, published 2019).

Biological target: mouse CD3 on Vα3S1/Vβ13S1-TCR hybridoma cells (mouse)
Test: cell-based or functional assay

NFAT-sGFP-positive cells after CD3 stimulation (% NFAT-sGFP-positive cells): > 30
Substance: anti-mouse CD3 antibody (clone 17A2, eBioscience)
